# According to PubChem BioAssay (Tox21):
# Records with an inconclusive call do not appear. Unless noted, calls follow the shape of the dose curve; as a rule, active = well fitted curve in the direction sought with a large enough effect in the repeat runs; inconclusive = weak or mixed curves; inactive = no such curve, though single readings can be large; an effect the other way counts as inactive or inconclusive. For part of its entries the source gives two or more results. They are shown here; other results are not. There may be further records. Values given together are repeated measurements across runs, samples, wells, individuals or studies. Where a structure was tested more than once in an assay, its records may differ in their call. A tag in brackets gives the origin of a value. Letters count within one entry.
# Tests used:
# [1] = qHTS assay for small molecule disruptors of the mitochondrial membrane potential (AID 720635); conditions: HepG2 mitochondrial membrane potential, Mito-MPS dye ratio
# Procedure, shortened: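 HepG2 cells exposed to compound 1 hr at 37C, then Mito-MPS dye 30 min. Ratio read of aggregate (540/590 nm) versus monomer (490/535 nm) fluorescence.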
# [2] = target: Androgen receptor (Homo sapiens) (UniProt P10275); experiment: qHTS assay to identify small molecule agonists of the androgen receptor (AR) signaling pathway using the MDA cell line (AID 743040; also: nearly all actives have a fitted effect of over 20% in size); conditions: MDA-kb2 AR-luc cells, MMTV luciferase, 16 h; series mostly up to 70.3 µM
# [3] = qHTS assay to identify small molecule antagonists of the androgen receptor (AR) signaling pathway using the MDA cell line - cell viability counter screen (AID 743041; also: nearly all actives have a fitted effect of over 45% in size); conditions: MDA-kb2 viability, CellTiter-Fluor, 16 h, cells co-treated with R1881 androgen agonist; series mostly up to 70.3 µM
# Procedure, shortened: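 MDA-kb2 AR-luc cells (MMTV-luciferase, AR/GR responsive) treated with compounds plus R1881 agonist for 16 h at 37C. CellTiter-Fluor added at 15.5 h; fluorescence read after 30 min in the same wells.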
# [4] = qHTS assay to identify small molecule antagonists of the peroxisome proliferator-activated receptor gamma (PPARg) signaling pathway - cell viability counter screen (AID 743194); conditions: PPARg-bla HEK293H viability, CellTiter-Glo luminescence, 17 h, co-treated with 50 nM rosiglitazone; series mostly up to 62.6 µM; also: nearly all actives have a fitted effect of over 55% in size
# Procedure, shortened: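 Cytotoxicity counter screen in PPARg-bla HEK293H cells, same wells as reporter assay. Compounds plus 50 nM rosiglitazone (final) for 17 h at 37 C, then viability read by CellTiter-Glo luminescence.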
# [5] = qHTS assay to identify small molecule antagonists of the constitutive androstane receptor (CAR) signaling pathway - cell viability counter screen (AID 1224837); conditions: HepG2-CYP2B6-hCAR viability, CellTiter-Fluor, 23 h, co-treated with 50 nM CITCO; series mostly up to 92.4 µM; also: nearly all actives have a fitted effect of over 45% in size
# Procedure, shortened: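 HepG2-CYP2B6-hCAR cells, 2500/well, 4 hr pre-incubation; compound titration, 15 conc.; CITCO 50 nM final; 23 hr, 37 C/5% CO2; CellTiter-Fluor, fluorescence intensity.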
# [6] = qHTS RealTime-Glo MT Cell Viability Assay in HEK293 cells - 0 hour (AID 1224880); conditions: RealTime-Glo luminescence; series mostly up to 35.3 µM; also: nearly all actives have a fitted effect of over 45% in size
# Procedure, shortened: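 Cells were seeded together with NanoLuc luciferase and a prosubstrate that viable cells reduce to a luciferase substrate. After a 5 h incubation at 37 C/5% CO2, compounds were added and luminescence was measured repeatedly during 40 h of treatment.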
# [7] = qHTS assay to identify small molecule agonists of the sonic hedgehog signaling (Shh) pathway (AID 1259368; calls by dose curve; also: nearly all actives have a fitted effect of over 15% in size); conditions: NIH/3T3 Gli1-Luc reporter, luciferase, 24 h; series mostly up to 92.4 µM
# Procedure, shortened: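 3T3Gli1-Luc (NIH/3T3 clone, stable Gli1-Luc); 4 hr pre-incubation, then cpd in DMSO 24 hr, 37 C/5% CO2; luciferase reagent 30 min RT; luminescence.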
# [8] = qHTS assay to identify small molecule antagonists of the progesterone receptor (PR) signaling pathway - cell viability counter screen (AID 1346798); conditions: PR-UAS-bla HEK293T viability, CellTiter-Glo luminescence, 16 h; series mostly up to 42.5 µM; also: nearly all actives have a fitted effect of over 50% in size
# Procedure, shortened: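 CellTiter-Glo luminescence; PR-UAS-bla HEK293T, 3,000 cells/well; compound + R5020, 16 hr, 37C/5% CO2; 30 min RT before read.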
# [9] = qHTS assay to identify small molecule antagonists of the TGF-beta/Smad signaling pathway - cell viability counter screen (AID 1346824); conditions: SBE-bla HEK293T viability, CellTiter-Glo luminescence; series mostly up to 35.3 µM; also: nearly all actives have a fitted effect of over 50% in size
# Procedure, shortened: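 SBE-bla HEK 293T cells, incubated overnight, then compound plus 0.25 ng/mL TGF-beta1 (stock added) for 5 hr at 37 C. Viability was read in the same wells by CellTiter-Glo luminescence after 30 min at room temperature.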
# Potency is read from the fitted curve at half-maximal effect.
# Sequence of UniProt P10275 (P10275 whole entry, looked up): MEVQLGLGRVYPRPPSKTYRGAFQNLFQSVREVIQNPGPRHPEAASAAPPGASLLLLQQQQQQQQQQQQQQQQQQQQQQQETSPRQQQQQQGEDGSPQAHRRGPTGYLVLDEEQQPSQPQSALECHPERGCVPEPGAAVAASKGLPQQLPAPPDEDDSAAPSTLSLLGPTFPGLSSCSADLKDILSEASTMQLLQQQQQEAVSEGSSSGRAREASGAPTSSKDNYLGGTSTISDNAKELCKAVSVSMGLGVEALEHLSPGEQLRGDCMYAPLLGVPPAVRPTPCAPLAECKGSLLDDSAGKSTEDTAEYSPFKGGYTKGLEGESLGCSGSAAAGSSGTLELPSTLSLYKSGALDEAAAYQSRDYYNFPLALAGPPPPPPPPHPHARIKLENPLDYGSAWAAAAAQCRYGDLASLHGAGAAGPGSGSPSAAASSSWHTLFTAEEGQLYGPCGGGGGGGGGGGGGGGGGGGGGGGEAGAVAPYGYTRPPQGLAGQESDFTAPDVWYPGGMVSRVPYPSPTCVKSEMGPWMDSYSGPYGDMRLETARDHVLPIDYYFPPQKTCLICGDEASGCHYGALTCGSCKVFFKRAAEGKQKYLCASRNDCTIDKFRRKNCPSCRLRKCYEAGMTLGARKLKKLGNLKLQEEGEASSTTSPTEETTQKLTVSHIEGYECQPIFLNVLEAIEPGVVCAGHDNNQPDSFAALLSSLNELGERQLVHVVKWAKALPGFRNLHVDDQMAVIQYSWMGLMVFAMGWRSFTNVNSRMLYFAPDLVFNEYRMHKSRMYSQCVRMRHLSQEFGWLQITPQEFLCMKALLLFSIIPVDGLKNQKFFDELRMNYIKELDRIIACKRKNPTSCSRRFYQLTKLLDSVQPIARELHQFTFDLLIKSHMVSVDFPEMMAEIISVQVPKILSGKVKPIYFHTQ
smiles,measurement,setting,value
Cc1cc2nc3c(=O)[nH]c(=O)nc-3n(C[C@H](O)[C@H](O)[C@H](O)CO)c2cc1C,Potency,[1],"active: 11.9, 10.6, 3.4, 3.58 µM [separate samples]"
Cc1ccc2c(n1)Oc1ccc(C(C)C(=O)OCC(=O)N(C)C)cc1C2 (configuration not stated),Potency,[2],active: 26.6 µM [sample A] and inactive [sample B]
O=C(Nc1ccc([N+](=O)[O-])cc1Cl)c1cc(Cl)ccc1O,Potency,[3],inactive [sample A] and active: 1.54 µM [sample B]
CC(=O)O[C@]1(C(C)=O)CC[C@H]2[C@@H]3C=C(Cl)C4=CC(=O)[C@@H]5C[C@@H]5[C@]4(C)[C@H]3CC[C@@]21C,Potency,[4],active: 54.9 µM [sample A] and inactive [sample B] and inactive [sample C]
Cc1ccc(C(=O)c2cc(O)c(O)c([N+](=O)[O-])c2)cc1,Potency,[4],active: 19.5 µM [sample A] and inactive [sample B]
O=C(c1ccccc1)c1ccc(O)cc1O,Potency,[5],active: 62.3 µM [sample A] and inactive [sample B]
O=C1OC2(c3cc(Br)c(O)c(Br)c3Oc3c2cc(Br)c(O)c3Br)c2c(Cl)c(Cl)c(Cl)c(Cl)c21,Potency,[6],active: 24.6 µM [sample A] and inactive [sample B]
O=C(/C=C/C=C/c1ccc2c(c1)OCO2)N1CCCCC1,Potency,[7],inactive [sample A] and active: 3.86 µM [sample B]
CC(C)Oc1ccc2c(=O)c(-c3ccccc3)coc2c1,Potency,[7],inactive [sample A] and active: 5.96 µM [sample B]
Brc1cc(Oc2cc(Br)c(Br)c(Br)c2Br)c(Br)c(Br)c1Br,Potency,[8],active: 34.5 µM [sample A] and inactive [sample B]
CC(=O)Oc1ccccc1C(=O)Nc1ncc([N+](=O)[O-])s1,Potency,[8],active: 39.3 µM [sample A] and inactive [sample B]
Cc1c(C(N)=O)cc([N+](=O)[O-])cc1[N+](=O)[O-],Potency,[9],active: 4.9 µM [sample A] and inactive [sample B]
